Publication PMC4336329 (PLoS ONE, 2015)
The campaign covered roughly 310,000 compounds. About 14,000 (4.5%) showed an effect of 50% or more. Effects have a minus sign here. Some of the results follow.

These compounds were tested against human ether-à-go-go-related gene (hERG) potassium channel (human, UniProt Q12809) (assay: primary screen, population patch clamp on CHO cells stably expressing hERG).
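Further: peak tail current of the secondary pulse compared with the same well before compound.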

Chain of human ether-à-go-go-related gene (hERG) potassium channel (Q12809 whole entry, looked up): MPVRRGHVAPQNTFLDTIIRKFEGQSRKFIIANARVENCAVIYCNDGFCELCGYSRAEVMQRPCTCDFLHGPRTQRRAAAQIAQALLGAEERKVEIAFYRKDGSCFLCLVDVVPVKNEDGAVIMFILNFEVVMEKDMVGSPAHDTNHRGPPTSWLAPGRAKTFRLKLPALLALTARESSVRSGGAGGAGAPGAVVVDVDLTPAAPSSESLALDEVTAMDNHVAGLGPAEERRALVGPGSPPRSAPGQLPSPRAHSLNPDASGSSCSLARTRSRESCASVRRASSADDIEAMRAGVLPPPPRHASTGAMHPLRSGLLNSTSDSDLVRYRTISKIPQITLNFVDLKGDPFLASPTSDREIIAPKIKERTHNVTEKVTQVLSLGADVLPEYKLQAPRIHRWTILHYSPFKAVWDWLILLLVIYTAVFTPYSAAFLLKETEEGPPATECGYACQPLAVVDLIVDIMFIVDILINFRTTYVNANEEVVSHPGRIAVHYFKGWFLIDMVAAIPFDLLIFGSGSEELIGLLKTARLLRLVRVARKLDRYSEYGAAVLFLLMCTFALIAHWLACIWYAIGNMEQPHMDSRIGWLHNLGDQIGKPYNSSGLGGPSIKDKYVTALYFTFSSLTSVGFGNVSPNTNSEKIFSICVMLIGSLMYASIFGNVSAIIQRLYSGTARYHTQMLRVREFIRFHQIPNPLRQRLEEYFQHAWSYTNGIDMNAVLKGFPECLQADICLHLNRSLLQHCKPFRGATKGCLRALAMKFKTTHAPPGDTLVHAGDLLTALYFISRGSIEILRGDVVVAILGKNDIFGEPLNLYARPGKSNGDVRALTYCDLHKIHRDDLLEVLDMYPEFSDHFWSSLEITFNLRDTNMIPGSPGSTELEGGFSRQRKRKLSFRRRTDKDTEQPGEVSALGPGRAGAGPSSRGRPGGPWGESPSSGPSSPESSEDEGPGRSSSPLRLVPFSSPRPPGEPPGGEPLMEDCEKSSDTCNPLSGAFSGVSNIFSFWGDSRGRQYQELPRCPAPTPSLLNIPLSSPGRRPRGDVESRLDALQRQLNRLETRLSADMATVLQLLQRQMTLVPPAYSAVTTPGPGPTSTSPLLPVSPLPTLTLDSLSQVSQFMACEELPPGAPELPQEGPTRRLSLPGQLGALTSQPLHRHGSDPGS

For Cc1ccc(NC(=O)CN2C(=O)COc3ccc(C)cc32)nc1, which “hERG current change (%, negative = inhibition) at 10uM” value is on record?
The value was 6.7%.

Which “hERG current change (%, negative = inhibition) at 10uM” value does the source give for Cc1cccc2c(C(=O)O)cc(-c3cccnc3)nc12 here?
Its value is 33.3%.

For CC(CCCC(C)(C)O)NC(=O)c1ccc(OC2CCN(C(=O)C3CC3)CC2)cc1 (stereo not drawn), which “hERG current change (%, negative = inhibition) at 10uM” value is on record?
Its value is 8.3%.

How did the “hERG current change (%, negative = inhibition) at 10uM” value turn out when O=[N+]([O-])c1cc([N+](=O)[O-])c2cccnc2c1Oc1ccccc1O was run?
The value was -0.878%.

With Cc1nc(N2CCN(Cc3ccccc3)CC2)nc2c1C(=O)CC(c1ccco1)C2 (stereo not drawn) as the compound, how does the “hERG current change (%, negative = inhibition) at 10uM” value read?
The value was -6.63%.

With CCN(CC)CCN1C(=O)C(=O)/C(=C(/O)c2c(C)[nH]c(C(=O)OC)c2C)C1c1ccco1 (stereo not drawn) as the compound, how does the “hERG current change (%, negative = inhibition) at 10uM” value read?
The value was 2.55%.

Which “hERG current change (%, negative = inhibition) at 10uM” value does the source give for Cc1ccc(CCn2c3c(c4ccccc42)CN(C)CC3)cn1 here?
The value was -3.74%.

How did the “hERG current change (%, negative = inhibition) at 10uM” value turn out when CC(C)c1nnc(NC(=O)C2CCN(c3cnccn3)CC2)s1 was run?
The value was -1.06%.

How did the “hERG current change (%, negative = inhibition) at 10uM” value turn out when COc1ccc2cc(C(=O)/C=C/c3cc(OC)c(OC)c(OC)c3)ccc2c1 was run?
The value was 19.7%.

For COc1cccc(NC(=O)N2CCc3ccccc3C2)c1, which “hERG current change (%, negative = inhibition) at 10uM” value is on record?
Its value is 14.4%.

With CN(C)CCNC(=O)c1ccccc1-c1cc2ccccc2c(=O)o1 as the compound, how does the “hERG current change (%, negative = inhibition) at 10uM” value read?
Its value is -54.6%.

Which “hERG current change (%, negative = inhibition) at 10uM” value does the source give for O=C(Nc1nc(-c2ccc(-c3ccccc3)cc2)cs1)c1cc([N+](=O)[O-])ccc1N1CCOCC1 here?
The value was 7.83%.

Which “hERG current change (%, negative = inhibition) at 10uM” value does the source give for Cc1nc(NC(=O)c2ccc(Br)s2)sc1C(=O)N(C)C here?
Its value is 0.336%.

Which “hERG current change (%, negative = inhibition) at 10uM” value does the source give for CN(CC(=O)Nc1cccc(F)c1)C(=O)c1ccc2c(c1)S(=O)(=O)N=C1CCCCCN12 here?
The value was 9.21%.

Which “hERG current change (%, negative = inhibition) at 10uM” value does the source give for Cc1onc(C(=O)NC(C)c2ccccc2)c1[N+](=O)[O-] (stereo not drawn) here?
Its value is -10.8%.

With O=C(/C=C/Nc1nccs1)C(F)(F)Cl as the compound, how does the “hERG current change (%, negative = inhibition) at 10uM” value read?
Its value is 10.5%.

CCCN1CCC(=O)N(CCSc2ccccc2)CC1 was tested. Which “hERG current change (%, negative = inhibition) at 10uM” value did it give?
Its value is -15.1%.

How did the “hERG current change (%, negative = inhibition) at 10uM” value turn out when O=C(Cn1c(-c2ccccc2)c[n+]2ccsc12)c1ccccc1.[Br-] was run?
The value was -9.99%.

For O=C(CCN1C(=O)c2cccc3cccc(c23)C1=O)Nc1ccon1, which “hERG current change (%, negative = inhibition) at 10uM” value is on record?
The value was 14%.

With COCCn1nnnc1C(C(C)C)N1CCSCC1.Cl (stereo not drawn) as the compound, how does the “hERG current change (%, negative = inhibition) at 10uM” value read?
The value was 90.5%.

Nc1n[nH]c(-c2cccc([N+](=O)[O-])c2)n1 was tested. Which “hERG current change (%, negative = inhibition) at 10uM” value did it give?
Its value is 6.47%.

How did the “hERG current change (%, negative = inhibition) at 10uM” value turn out when Cn1c(Cn2c(=O)sc3ccccc32)nnc1SCC(=O)NC1CCCCC1 was run?
Its value is 12.2%.

COc1ccc(C2=CC(c3ccc(OC)c(OC)c3)n3nnnc3N2)c(OC)c1 (stereo not drawn) was tested. Which “hERG current change (%, negative = inhibition) at 10uM” value did it give?
Its value is -5.66%.

With CCOc1ccc(-c2nnc(NC(=O)c3ccc(OCC(C)C)c(OC)c3)o2)cc1 as the compound, how does the “hERG current change (%, negative = inhibition) at 10uM” value read?
The value was 0.141%.
